Laboratory results from patent US9585897B2, “Anti-infective hydroxy-phenyl-benzoates and methods of use” (priority 2008, dated 2017).

Tested on: S. aureus sarA P1
Assay: In vivo GFP::promoter fusion assay of sarA P1 in IE vegetations
Settings: 24 hr after single iv dose of 8 mg/kg aspirin
Experimental: Giemsa-staining and fluorescence analysis of P1:GFPuvr S. aureus constructs were performed on valve vegetations excised from rabbits with IE 24 hr following no treatment (control) or a single iv dose of 8 mg/kg aspirin. FIGS. 6A and 6B—respective fluorescence and Giemsa-stains in control animals; FIGS. 6C and 6D—fluorescence or Giemsa stains of aspirin-treated animals.

CC(=O)Oc1ccccc1C(=O)O [aspirin, acetylsalicylic acid]
sarA P1 expression within vegetations: marked reduction | sarA P1 expression within vegetations (listed as Aspirin): suppressed
